Source: PubChem BioAssay AID686979 (National Center for Advancing Translational Sciences (NCATS), 2013)
The whole screen tested about 420,000 compounds, of which about 50,000 (12%) were called active. Inconclusive results, whose numbers are uncertain, are shown with a selection of clear calls. Calls follow the shape of the dose curve; as a rule, active = well fitted inhibition curve with a large enough effect; inconclusive = small, poorly fitted or top-dose-only effect; inactive = flat fitted curve, though single readings scatter. No potency is given beside an inconclusive call; the fits are too rough.

Assay: qHTS for Inhibitors of human tyrosyl-DNA phosphodiesterase 1 (TDP1): qHTS in cells in presence of CPT; also: nearly all actives have a fitted effect of over 55% in size
Details: chicken DT40 Tdp1-/-;hTDP1 cells + 20 nM CPT, ATP luminescence, 48 h; activity change, negative = growth inhibition: at 46.2 µM (top of the series)
How it was run: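 Cell growth measured by CellTiter-Glo luminescence after a minimum 48 h, 37 C compound exposure with 20 nM CPT in Tdp1-knockout DT40 cells stably expressing hTDP1, seeded 400/well; qHTS titration format.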
% is scaled to controls: 0 for no effect and ±100 for the full control effect; potency is read from the fitted curve at half-maximal effect; tags tell the direction and shape of the fitted curve.

Compound	activity change, negative = growth inhibition	Potency
CN(Cc1nc2ccccc2c(=O)[nH]1)Cc1cc(=O)oc2ccc3ccccc3c12	inconclusive: -31.3% [inhibitor]	
O=C(c1ccccc1Nc1ccc(SC(F)F)cc1)N1CCCCCC1		inconclusive [inhibitor, single point]
O=C(CSc1nnc(-c2ccccc2O)o1)Oc1ccc(OCc2ccccc2)cc1		active: 13 µM
Cc1ccc(Nc2c(-c3ccc(C)cc3)nc3c(C)cccn23)cc1		active: 14.6 µM
CCCOc1ccc2[nH]c(C(=O)N/N=C/c3cc(OC)c(OC)c(OC)c3)cc2c1		inconclusive [inhibitor, single point]
O=C(Nc1nccs1)c1ccc(N2CCOCC2)c([N+](=O)[O-])c1		inconclusive [inhibitor, single point]
O=C(c1[nH]c(C(F)(F)F)nc1-c1ccccc1)N1CCN(c2ncccn2)CC1		active: 29.1 µM
COc1cccc(CN(C(=O)c2oc3ccccc3c2C)C2CCS(=O)(=O)C2)c1 (stereo not drawn)		inconclusive [inhibitor, single point]
CCc1cccc(C)c1NC(=O)CCS(=O)(=O)c1ccc2c(c1)oc(=O)n2C		inconclusive [inhibitor, single point]
Cc1cccc(Nc2nc(-c3ccncc3)cs2)c1		inconclusive [inhibitor, single point]
Cc1nc(-c2ccc(F)cc2)c(CC(=O)N2CCN(S(=O)(=O)c3cccc(F)c3)CC2)s1		active: 20.6 µM
CC(C)Oc1cccc(C(=O)NC(=S)Nc2cccc(NC(=O)c3ccccc3Cl)c2)c1		inconclusive [inhibitor, single point]
CCOC(=O)N1CCN(c2ccc([N+](=O)[O-])cc2)CC1		inconclusive [inhibitor, single point]
Oc1ccccc1C1SC(c2ccccc2O)SC(c2ccccc2O)S1 (stereo not drawn)		inconclusive [inhibitor, single point]
CN(C)S(=O)(=O)c1ccc(Cl)c(NC(=O)CN2CCC(Cc3ccccc3)CC2)c1		inconclusive [inhibitor, single point]
O=S(=O)(c1ccccc1)N1CCN(CC(O)COc2ccc3c(c2)CCC3)CC1 (stereo not drawn)	inconclusive: -31% [inhibitor]	
CCOC(=O)c1c(C)nc2c(C)cccn12	inconclusive: -32.6% [inhibitor]	
CN(C(=S)NC(=O)CCCOc1ccc(Cl)cc1Cl)c1ccccc1		inconclusive [inhibitor, single point]
